No constants are given. Whether binding was seen depends on the method and setting. Binding seen in cells or lysates may run through a third protein. Some entries that bind do so weakly or less than the wild type.
Assays:
[1] = biological target: HA-Hax1 (UniProt O00165); assay: co-IP; HEK293T cells transfected with Myc- or HA-tagged proteins, NP40 lysis buffer (1% NP40, 20 mM Tris-HCl pH 8.0, 0.8% NaCl, 10% glycerol), HA-agarose beads overnight at 4 °C, immunoblot
[2] = biological target: Hax1 (endogenous) (human (endogenous in MCF7)) (UniProt O00165); assay: co-IP; endogenous proteins, Hax1 immunoprecipitates from MCF7 cells, immunoblot for IQGAP1 and Hax1

Chains of the proteins cited; added tags and fusions are not shown. Lines headed by an entry give the natural chain unless they say otherwise; changes in a name come on top.
UniProt O00165: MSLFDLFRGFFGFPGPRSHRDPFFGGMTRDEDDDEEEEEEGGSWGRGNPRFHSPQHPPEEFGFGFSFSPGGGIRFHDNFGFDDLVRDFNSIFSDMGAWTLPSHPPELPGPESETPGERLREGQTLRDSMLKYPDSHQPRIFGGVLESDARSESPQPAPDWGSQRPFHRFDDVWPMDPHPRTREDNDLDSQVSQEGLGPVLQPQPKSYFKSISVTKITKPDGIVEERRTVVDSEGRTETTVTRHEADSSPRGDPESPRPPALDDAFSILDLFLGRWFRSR
UniProt P46940: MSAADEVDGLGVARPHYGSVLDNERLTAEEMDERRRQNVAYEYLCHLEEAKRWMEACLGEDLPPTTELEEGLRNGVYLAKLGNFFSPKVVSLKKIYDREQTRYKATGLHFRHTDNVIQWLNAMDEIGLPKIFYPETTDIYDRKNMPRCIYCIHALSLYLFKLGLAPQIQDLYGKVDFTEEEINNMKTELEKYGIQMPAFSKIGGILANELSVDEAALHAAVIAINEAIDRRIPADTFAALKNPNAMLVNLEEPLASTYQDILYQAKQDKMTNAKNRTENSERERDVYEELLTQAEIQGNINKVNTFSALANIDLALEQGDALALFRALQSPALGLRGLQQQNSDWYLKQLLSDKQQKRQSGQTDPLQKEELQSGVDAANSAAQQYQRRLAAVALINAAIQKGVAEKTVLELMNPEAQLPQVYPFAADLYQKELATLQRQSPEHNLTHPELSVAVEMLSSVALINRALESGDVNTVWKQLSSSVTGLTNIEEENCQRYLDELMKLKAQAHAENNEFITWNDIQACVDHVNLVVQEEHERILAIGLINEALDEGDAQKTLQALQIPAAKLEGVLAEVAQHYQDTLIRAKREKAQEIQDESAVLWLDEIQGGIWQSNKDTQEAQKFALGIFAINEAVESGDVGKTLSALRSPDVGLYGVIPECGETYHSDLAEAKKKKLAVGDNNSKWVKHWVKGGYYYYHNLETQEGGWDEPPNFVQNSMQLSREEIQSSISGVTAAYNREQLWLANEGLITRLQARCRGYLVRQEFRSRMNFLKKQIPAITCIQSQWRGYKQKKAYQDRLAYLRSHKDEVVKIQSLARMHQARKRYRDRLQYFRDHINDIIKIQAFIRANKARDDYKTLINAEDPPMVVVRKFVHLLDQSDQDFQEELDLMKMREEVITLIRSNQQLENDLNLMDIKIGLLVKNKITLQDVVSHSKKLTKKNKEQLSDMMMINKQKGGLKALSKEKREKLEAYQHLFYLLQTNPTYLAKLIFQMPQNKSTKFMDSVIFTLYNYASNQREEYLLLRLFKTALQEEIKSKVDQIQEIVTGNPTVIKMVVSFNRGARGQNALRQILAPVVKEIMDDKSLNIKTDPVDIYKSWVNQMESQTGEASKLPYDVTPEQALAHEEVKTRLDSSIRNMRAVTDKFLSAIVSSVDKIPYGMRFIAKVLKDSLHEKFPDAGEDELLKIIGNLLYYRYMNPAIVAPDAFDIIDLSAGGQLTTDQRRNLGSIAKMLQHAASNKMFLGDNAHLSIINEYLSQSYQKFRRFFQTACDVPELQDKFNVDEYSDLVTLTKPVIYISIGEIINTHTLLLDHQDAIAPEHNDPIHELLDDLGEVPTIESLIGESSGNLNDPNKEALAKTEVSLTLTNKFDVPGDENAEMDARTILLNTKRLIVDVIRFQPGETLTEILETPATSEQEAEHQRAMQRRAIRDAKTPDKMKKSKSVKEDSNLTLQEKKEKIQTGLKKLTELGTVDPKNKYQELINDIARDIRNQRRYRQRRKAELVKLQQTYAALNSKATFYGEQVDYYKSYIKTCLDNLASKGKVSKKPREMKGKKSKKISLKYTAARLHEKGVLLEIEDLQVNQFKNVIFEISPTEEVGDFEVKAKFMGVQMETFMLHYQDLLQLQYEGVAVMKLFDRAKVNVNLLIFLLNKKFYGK

Row | Substance | binding [1] | binding [2]
1 | IQGAP1 GRD domain (residues 1025-1238) (from UniProt P46940 1025-1238) (domain or fragment) | no binding | –
2 | IQGAP1 N-terminal (residues 1-863) (from UniProt P46940 1-863) (domain or fragment) | no binding | –
3 | Myc-IQGAP1 (pcDNA3-Myc-IQGAP1, full length) (from UniProt P46940 1-1657) | binds | –
4 | IQGAP1 C-terminal (residues 864-1657) (from UniProt P46940 864-1657) (domain or fragment) | binds | –
5 | IQGAP1 RGCT domain (residues 1276-1657) (from UniProt P46940 1276-1657) (domain or fragment) | binds | –
6 | IQGAP1 (endogenous) (from UniProt P46940 1-1657) | – | binds

— paper PMC10364419
